# Screen size: about 420,000 compounds; about 64,000 (15%) were called active. This list was built around the results that the source calls inconclusive (neither active nor inactive); the mix of calls is not that of the screen. Calls follow the shape of the dose curve; as a rule, active = well fitted inhibition curve with a large enough effect; inconclusive = small, poorly fitted or top-dose-only effect; inactive = flat fitted curve, though single readings scatter. No potency is given beside an inconclusive call; the fits are too rough.
# Assay: qHTS for Inhibitors of human tyrosyl-DNA phosphodiesterase 1 (TDP1): qHTS in cells in absence of CPT; also: nearly all actives have a fitted effect of over 55% in size
# Settings: DT40 Tdp1-/- hTDP1 cells, no CPT, ATP luminescence, 48 h; activity change, negative = growth inhibition: at 46.2 µM (top of the series) unless noted
# How it was run: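 Chicken DT40 Tdp1-/- cells stably complemented with human TDP1 were seeded at 400 cells/well with DMSO in place of 20 nM camptothecin. After compound pinning, cells grew at least 48 hr at 37 °C; viability read by CellTiter-Glo luminescence.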
# % is scaled to controls: 0 for no effect and ±100 for the full control effect; potency is read from the fitted curve at half-maximal effect; tags tell the direction and shape of the fitted curve.
Structure (SMILES),Potency,"activity change, negative = growth inhibition"
CCOC(=O)/C=C/c1ccc2oc3ccccc3c(=O)c2c1,"inconclusive [inhibitor, single point]",
COc1ccc(CNC(=O)c2cc(C)nc3c2c(C)nn3-c2cccc(Cl)c2C)cc1,"inconclusive [inhibitor, single point]",
Cc1ccc(S(=O)(=O)N2CCC(C(=O)N3CCC3)CC2)cc1,,inactive: 21.7%
Cc1ccc(-c2nc3ccccc3s2)cc1S(=O)(=O)N1CCCC1,"inconclusive [inhibitor, single point]",
CC(C)(C)c1ccccc1NC(=O)Cn1cnc2cc([N+](=O)[O-])ccc2c1=O,"inconclusive [inhibitor, single point]",
COc1cccc(C(=O)NC(C)c2cccc3ccccc23)c1OC (stereo not given),"inconclusive [inhibitor, single point]",
CCn1c(=O)cc(OCC(=O)NCc2ccco2)c2ccccc21,,inactive: -19%
CCOC(=O)c1c(NC(=O)c2cccc(N3C(=O)CCC3=O)c2)sc2c1CCN(CC)C2,,inactive: 2.56%
Cn1c(CCCNC(=O)c2ccccc2)nc2ccccc21,,inactive: -26.5%
CC1(Cc2ccc3ccccc3n2)C(=O)Nc2ccc(OC(F)(F)F)cc21 (stereo not given),"inconclusive [inhibitor, single point]",
Cc1cccc(C)c1Cn1c(C)c(C(=O)NCc2ccc(C#N)cc2)sc1=O,active: 18.4 µM,
CSc1cccc(CN2CCC(CO)(Cc3cccc(C(F)(F)F)c3)CC2)c1,active: 16.4 µM,
COc1cc(N=Nc2ccc(C)cc2S(N)(=O)=O)c(C)cc1N,"inconclusive [inhibitor, single point]",
Cc1ccc(-c2cc(C(=O)NCCCN3CCOCC3)c3ccccc3n2)cc1,"inconclusive [inhibitor, single point]",
COc1ccc(C(=O)OCC(=O)NC2CC2)cc1F,,inactive: 3.64%
O=C(NCc1ccccc1)c1cc(S(=O)(=O)N2CCOCC2)ccc1F,"inconclusive [inhibitor, partial curve, poor fit]",
CCC[C@@H](OS(N)(=O)=O)[C@@H](Cc1ccccc1)C(=O)OCC,,inactive: -11.7%
CC(=O)c1ccc(OCCCC(=O)OCC(=O)N2CCN(S(=O)(=O)c3ccc(C)cc3C)CC2)cc1,,inactive: -1.06%
COc1ccccc1C(=O)N/N=C(\C)CC(=O)Nc1ccc(Nc2ccccc2)cc1,"inconclusive [inhibitor, single point]",
CCOC(=O)C1CCN(CC(=O)Nc2c(C(=O)OC)n(C)c3cccc(C)c23)CC1,"inconclusive [inhibitor, single point]",
CC[C@H](CO)Nc1nc(Nc2cccc(Cl)c2)c2ncn(C(C)C)c2n1,active: 9.2 µM,
COc1ccc(C)cc1NC(=O)CC(=O)Nc1ccc2nc3n(c(=O)c2c1)CCCCC3,"inconclusive [inhibitor, single point]",
CC(C)[C@@H]1CC[C@@H](C)CC1=O,,inactive: -17.1%

Structure (SMILES),Potency,"activity change, negative = growth inhibition"
CC1(C)NC(=O)N(CC(O)CN(Cc2ccccc2)Cc2ccccc2)C1=O (stereo not given),"inconclusive [inhibitor, partial curve, poor fit]",
O=C(Nc1scc(-c2ccccc2)c1C(=O)O)c1ccco1,"inconclusive [inhibitor, single point]",
O=S(=O)(Nc1ccc(-n2cccc2)cc1)c1ccc(Cl)c(Cl)c1,"inconclusive [inhibitor, single point]",
Cc1nn(C)cc1/C=C1\CCC/C(=C\c2cn(C)nc2C)C1=O,"inconclusive [inhibitor, single point]",
CN(C)Cc1ccccc1-c1ccc2ncnc(N(C)Cc3ccco3)c2c1,"inconclusive [inhibitor, single point]",
CCOc1ccc(S(=O)(=O)N(C(=O)c2ccncc2)c2ccc3oc(C)c(C(=O)OC)c3c2)cc1,active: 0.92 µM,
COCCCNC(=S)N1CCN(c2nc(-c3ccc(Cl)cc3)cs2)CC1,active: 18.4 µM,
O=C(c1ccc(S(=O)(=O)Cc2cc(F)ccc2F)c([N+](=O)[O-])c1)N1CCCCC1,active: 23.1 µM,
N#CCSc1nc2sc3c(c2c(=O)n1C1CCCCC1)CCCC3,active: 23.1 µM,
CCOC(=O)c1nn(-c2ccc3ccccc3c2)cc1O,"inconclusive [inhibitor, single point]",
CCCCCCCCOc1ccc(C2OC34CCCCC3C(C#N)(C#N)C2(C#N)C(=N)O4)cc1 (stereo not given),"inconclusive [inhibitor, single point]",
COc1ccc(CNc2ncnc3ccc(-c4ccc5c(c4)OCO5)cc23)c(OC)c1,,inactive: -15%
CC(C)Cn1c(CN2CCCCC2C)nc2c1c(=O)n(C)c(=O)n2C (stereo not given),"inconclusive [inhibitor, single point]",
CC(OC(=O)c1cccc(S(=O)(=O)N2CCCCCC2)c1)C(=O)Nc1ccc(S(N)(=O)=O)cc1 (stereo not given),"inconclusive [inhibitor, single point]",
O=C(Nc1ccc(N2CCCCC2)c(Cl)c1)c1ccc2c(c1)OCCO2,active: 20.6 µM,
CCCCCCCCN1C(=O)[C@H](CC(=O)N2CCN(C(=O)c3ccco3)CC2)C[C@@]2(C(=O)OC)CC(C)(C)CC=C12,active: 14.6 µM,
CC(C)N(Cc1cc2ccccc2[nH]c1=O)C(=O)C(C)(C)C,"inconclusive [inhibitor, partial curve]",
CN(C(=O)CSc1nc2ccccc2n1Cc1cccc(C(F)(F)F)c1)c1ccccc1,active: 16.4 µM,
Cc1ccc(C)c(NC(=O)C2CCCN(S(=O)(=O)c3cccnc3)C2)c1 (stereo not given),,inactive: -17.5%
CC12CCC(=O)C=C1CCC1C2CCC2(C)C1CC1C3C(=O)N(Cc4ccccc4)C(=O)C3CC(=O)C12 (stereo not given),active: 25.9 µM,
CC1=Nc2ccc(C)c3nc(C)cc(c23)N1c1ccc(C)cc1,active: 16.4 µM,
CCOc1ccc(-n2c(=O)c3c(C)c(C)sc3n(Cc3cc(=O)n4cc(Cl)ccc4n3)c2=O)cc1,,inconclusive: -0.713% [inhibitor]

# From PubChem BioAssay AID686978 (National Center for Advancing Translational Sciences (NCATS), 2013)
